Measured values from the supplement of paper PMC7125110.
± gives the standard error. Variants at the background level are over-represented here.

B1: glmS ribozyme (parent)
chain: AUAAAAGCGCCAGAACUACAGAAAUGUAGUUGACGAGGAGGAGGUUUAUCGAAUUUUCGGCGGAUGCCUCCAAA

Tests used:
Conditions in all cases: with glucosamine-6-phosphate
glucosamine-6-phosphate [1] = variants of: B1; test: self-cleavage kobs at 640 uM GlcN6P; higher = faster cleavage; RNA array
Summary of the method: (§1)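 Barcoded glmS ribozyme variants on sequenced MiSeq chips were transcribed in situ by E. coli RNA polymerase and tracked through a hybridised Cy3 probe at 37 °C. Glucosamine-6-phosphate (40 μM to 10 mM) in HEPES/KCl/Mg(OAc)2 buffer was flowed in, and tiles were imaged over ~14 h. Signals were normalised to baseline and to non-cleaving reference variants; per-tile medians were fit to one- or two-exponential decays to give kobs. kcat and KM came from weighted Michaelis–Menten fits across concentrations.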

glucosamine-6-phosphate [2] = variants of: B1; test: self-cleavage kobs at 2500 uM GlcN6P; higher = faster cleavage; RNA array
Summary of the method: as §1

glucosamine-6-phosphate [3] = variants of: B1; test: self-cleavage kobs at 10000 uM GlcN6P; higher = faster cleavage; RNA array
Summary of the method: as §1

glucosamine-6-phosphate [4] = variants of: B1; test: self-cleavage kobs at 160 uM GlcN6P; higher = faster cleavage; RNA array
Summary of the method: as §1

Variant | self-cleavage kobs at 640 uM GlcN6P (glucosamine-6-phosphate [1]) [s⁻¹] | self-cleavage kobs at 2500 uM GlcN6P (glucosamine-6-phosphate [2]) [s⁻¹] | self-cleavage kobs at 10000 uM GlcN6P (glucosamine-6-phosphate [3]) [s⁻¹] | self-cleavage kobs at 160 uM GlcN6P (glucosamine-6-phosphate [4]) [s⁻¹]
AUAAAAGCGCGAGAACUACAGAAAUGUAGUUGACAAGGAGGAGGUUUAUUGAAUUUUCUGCGGAUGCCUCCAAA [C11G G35A C50U G59U] | < 1e-05 |  |  | 
AUAAAAGCGCGAGAACUACAGAAAUGUAGUUGACCAGGAGGAGGUUUUUCGAAUUUUCGGCGGAGGCCUCCAAA [C11G G35C A48U U65G] | < 1e-05 |  |  | 
AUAAAAGCGCGACAACUACAGAAAUGUAGUUGACGAGGAGGAGGUUUAUCGAAUUUUCGGCGGAUGCCUCCAAA [C11G G13C] | < 1e-05 | < 1e-05 | < 1e-05 | 
AUAAAAGCGCGAGAACUACAGAAAUGUAGUCGACGAGGAGGAGGUUUAUCGAAAUUUCGGCGGAUGCCUCCAAA [C11G U31C U54A] | < 1e-05 | < 1e-05 |  | 
AUAAAAGCGCGAGAAAUACAGAAAUGUAGUUGAGGAGGAGGUGGUUUAUCGAAUUUUCGGCGGAUGCCUCCAAA [C11G C16A C34G A42U] | < 1e-05 |  |  | < 1e-05
AUAAAAGCGCGAGAACUACAGAAAUGUAGUUGACGAGGCGGAGGUUUAUCGAAUUUUCGGCGGUUGCCUCCAAA [C11G A39C A64U] | < 1e-05 |  |  | < 1e-05
AUAAAAGCGCAAGAACUACAGAAAUGUAGUUGACAAGGAGGAGGUUUAUCGAAUUUUCGGCGUCUGCCUCCAAA [C11A G35A G63U A64C] | < 1e-05 | < 1e-05 |  | 
AUAAAAGCGCUAGAACUACAGAAAUGUAGUUGACGAGGAGGAGGUUUAUUGAAUUUUCGCCGGAUGCCUCCAAA [C11U C50U G60C] | < 1e-05 |  |  | 
AUAAAAGCGCAAGAACUACAGAAAUGUAGUUGACGAGGAGGAGGUUUAUCGAAUUUUCAGGGGAUGCCUACAAA [C11A G59A C61G C70A] | 0.000163 ± 7.6e-05 |  |  | 
AUAAAAGCGCGAGAACUACAGAAAUGUACUUCACGAGGAGGAGGUUUAUCGAAUUUUCGGCGGAUGCCUCCAAA [C11G G29C G32C] | < 1e-05 | < 1e-05 |  | < 1e-05
AUAAAAGCGCAAGAACUACAGAAAUGUAGUUGACGAGGAGGAGGUUUAUCGAAUUAUCGGCGGAUGCCUCCAAA [C11A U56A] | 3.27e-05 ± 1e-05 | 7.89e-05 ± 1.5e-05 | 0.000118 ± 1.3e-05 | 
AUAAAAGCGCUAGAACUACAGAAAUGUAAUUGCCGAGGAGGAGGUUUAUCGAAUUUUCGGCGGAUGCCUCCAAA [C11U G29A A33C] | < 1e-05 | < 1e-05 |  | 
AUAAAAGCGCAAGAACUACAGAAAUGUACUUGACGAGGAGGAGAUUUAUCGAAUUUUCGGCGGAUGCCUCCAAA [C11A G29C G44A] | < 1e-05 |  |  | 
AUAAAAGCGCAAGAACUACAGAAAUGUAGUUGACGACGAGGAGGUUUAUCGAAUUUUCGGCGGAGGCCUCCAAA [C11A G37C U65G] | < 1e-05 |  |  | 
AUAAAAGCGCUAGAACUACAGAAAUGUAGUUGACGAGGAGGAGGUUUGUCGAAUUUUCGGCGGAUGCCUCCAAA [C11U A48G] | < 1e-05 |  | < 1e-05 | < 1e-05
AUAAAAGCGCGAGAACUACAGAAAUGUAGUUGACGCGGAGGAGUUUUAUCAAAUUUUCGGCUGAUGCCUCCAAA [C11G A36C G44U G51A G62U] | < 1e-05 | < 1e-05 |  | 
AUAAAAGCGCGAGAACUACAGAAAUGUAGUUGACGAGGAGAAGGUUUAUCGAAUUGUCGGCGGAUGCCUCCAAA [C11G G41A U56G] | < 1e-05 | < 1e-05 |  | 
AUAAAAGCGCGAGAACUACAGAAAUGUAGUUGACGAGGGGGAGGUUUAUCGAGUCUUCGGCGGUUGCCUCCAAA [C11G A39G A53G U55C A64U] | < 1e-05 |  |  | 
AUAAAAGCGCUAGAACUACAGAAAUGUAUUUGACGAGGAAGAGGUUUAUCGAAUUUUCGGCGGAUGCCUCCAAA [C11U G29U G40A] | < 1e-05 |  | 5.39e-05 ± 1.7e-05 | < 1e-05
AUAAAAGCGCGAGAACUACAGAAAUGUAGUUGAUGUGGAGGAGGUUUAUCGAAUAUUCGGCGGAUGACUCCAAA [C11G C34U A36U U55A C67A] | < 1e-05 |  |  | 
AUAAAAGCGCAAGAACUACAGAAAUGUAGUUGACGAGGAGGAGGUUUAUGGAAUUUUCGGAGGAUGCCUCCAAA [C11A C50G C61A] | 0.000272 ± 7.9e-05 | 0.000188 ± 3.7e-05 |  | 

Variant | self-cleavage kobs at 640 uM GlcN6P (glucosamine-6-phosphate [1]) [s⁻¹] | self-cleavage kobs at 2500 uM GlcN6P (glucosamine-6-phosphate [2]) [s⁻¹] | self-cleavage kobs at 10000 uM GlcN6P (glucosamine-6-phosphate [3]) [s⁻¹] | self-cleavage kobs at 160 uM GlcN6P (glucosamine-6-phosphate [4]) [s⁻¹]
AUAAAAGCGCUAGAACUACAGAAAUGUAGCGGAAGAGGAGGAGGUUUACCGAAUUUUCGGCGGAUGCCUCCAAA [C11U U30C U31G C34A U49C] | < 1e-05 | < 1e-05 |  | 
AUAAAAGCGCUAGAACUACAGAAAUGUAGUAGACGAGGAGGAGGUUUUUCGAAGUUUCGGCGUAUGCCUCCAAA [C11U U31A A48U U54G G63U] | < 1e-05 | < 1e-05 |  | < 1e-05
AUAAAAGCGCGAGAACUACAGAAAUGUAGUUGCCGAGGAAGAGGUUUAUCGAAUUUUCGGCGGAUGCCUCCAAA [C11G A33C G40A] | < 1e-05 |  |  | 
AUAAAAGCGCUAGAACUACAGAAAUGUAUUUGACGAGGAGGAGGUUUAUCGAAAUUUCGGCGGAUGCCUCCAAA [C11U G29U U54A] | 0.000113 ± 2.1e-05 | 0.000171 ± 4.4e-05 | 0.000577 ± 0.00014 | 
AUAAAAGCGCUAGAACUACAGAAAUGUAGUUGACGAGAAGGCGGUUUAUCGAAUUUUCGGCGGAUGCCUCCAAA [C11U G38A A42C] | < 1e-05 | < 1e-05 |  | 
AUAAAAGCGCUAGAACUACAGAAAUGUAGUUGACGAGGACGAGAUUUAUCGAAUUUCCGGCGGAUGCCUCCAAA [C11U G40C G44A U57C] | < 1e-05 |  |  | 
AUAAAAGCGCUAGAACUACAGAAAUGUAGUUGAGGAGGAGGAGGUUUAUCGAAUUUUCGGCGGAUGCCUCCAAA [C11U C34G] | < 1e-05 | < 1e-05 | < 1e-05 | 
AUAAAAGCGCUAGAACUACAGAAAUGUAGUUGACGAGGAGCAGGUUUAUCGAAGUUUCCGCGGAUGCCUCCAAA [C11U G41C U54G G59C] | < 1e-05 |  |  | 
AUAAAAGCGCGAGAACUACAGAAAUGUAGUGGACGAGGAGUAGGUUUAUCGAAUUUUCGGCGGAUGCCCCCAAA [C11G U31G G41U U69C] | < 1e-05 | < 1e-05 |  | 
AUAAAAGCGCUAGAACUACAGAAAUGUAGUUGACGAGGAGGAGGUUUAUCGAAUUUUCAGCUUAUGCCUCCAAA [C11U G59A G62U G63U] | < 1e-05 |  |  | 
AUAAAAGCGCAAGAACUACAGAAAUGUAGUUGACGAGGAAGAGGUCUAUCGAAUUUUCGGCGGAAGCCUCCAAA [C11A G40A U46C U65A] | < 1e-05 |  |  | 
AUAAAAGCGCGAAAACUACAGAAAUGUAGUUGACGAGGUGGAGGUUUAUCGAAUUUUCGGCGGAUGCCUCCAAA [C11G G13A A39U] | < 1e-05 |  |  | 
AUAAAAGCGCGAGAACUACAGAAAUGUAGUUGACGAGGAGGAGAUUUACAGAAUUUUCGGCGGGUACCUCCAAA [C11G G44A U49C C50A A64G G66A] | < 1e-05 |  |  | 
AUAAAAGCGCAAGAACUACAGAAAUGUAGAUGACGAGGAGGAGGGUUAUCGAAUUUUCGGCGGAUGCCUCCAAA [C11A U30A U45G] | < 1e-05 |  |  | 
AUAAAAGCGCGUGAACUACAGAAAUGUAGUUGACGAGGAGUAGGUUUAUCGAGUUUUCGGCGGAUGGCUCCAAA [C11G A12U G41U A53G C67G] | < 1e-05 |  |  | 
AUAAAAGCGCGAGAACUACAGAAAUGUAGUUGAUGAGGAGGAGGUUUAUCGAAUUUUCGGCGGAUGCCUCCAAA [C11G C34U] | < 1e-05 | < 1e-05 |  | < 1e-05
AUAAAAGCGCUAGAACUACAGAAAUGUAUUUCACGAGGAGGAGUUGUAUCGAAUUUUCGGCGGAUUCCUCCAAA [C11U G29U G32C G44U U46G G66U] | < 1e-05 | < 1e-05 |  | 
AUAAAAGCGCUAGAACUACAGAAAUGUAGUUGACGACGAGGAGGUUUAUAGAAUUUUCGGCGAAUGCCUCCAAA [C11U G37C C50A G63A] | < 1e-05 |  |  | 
AUAAAAGCGCAAGAACUACAGAAAUGUAGUUGACGAGGAGGAGGUUUAUCUAAUUUUCGUCGGAUGCCUCCAAA [C11A G51U G60U] | < 1e-05 |  | < 1e-05 | 
AUAAAAGCGCUAGUACUACAGAAAUGUAGUUGACGAGGAGGAGAUUUAUCGAAUUUUCGGCGGAUGCCUCCAAA [C11U A14U G44A] | < 1e-05 | < 1e-05 |  | < 1e-05
AUAAAAGCGCUAGAACUACAGAAAUGUAGUUGACGAAGAGGAGGUUUAUCGAAUUUUGGGCGGAUGCCUCCAAA [C11U G37A C58G] | < 1e-05 |  |  | < 1e-05
